Source: the BET-seq Pho4 binding data (Le et al. 2018)
Some of the results follow. Values were computed here from the reads of four pooled replicates and scatter widely.

target: T1, Pho4 (S. cerevisiae) (UniProt P07270); test: relative binding free energy (BET-seq); higher = weaker binding; conditions: reference: library average
T1 sequence: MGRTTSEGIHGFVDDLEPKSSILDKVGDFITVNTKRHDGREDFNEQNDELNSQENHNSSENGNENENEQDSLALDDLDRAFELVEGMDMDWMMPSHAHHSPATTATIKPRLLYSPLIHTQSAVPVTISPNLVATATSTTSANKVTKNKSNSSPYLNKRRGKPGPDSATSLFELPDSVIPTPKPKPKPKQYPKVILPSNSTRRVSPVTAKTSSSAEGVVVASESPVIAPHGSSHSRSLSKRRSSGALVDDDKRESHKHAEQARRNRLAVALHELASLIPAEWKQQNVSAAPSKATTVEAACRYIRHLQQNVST

Sequence | relative binding free energy [kcal/mol]
AGTGCCACGTGCTGGA | -0.12
GTTGGCACGTGGAAAG | 0.02
ATGTGCACGTGAATGA | 0.14
CGGGTCACGTGCTAGT | 0.08
GTGTACACGTGAAATG | 0.31
TTCTGCACGTGGTGGA | -0.08
GTGATCACGTGGTCGG | 0.11
TGTTCCACGTGGTGCG | -0.15
CGTCACACGTGGTGTT | -0.02
GGTGACACGTGTAGAG | -0.01
TTGGACACGTGCGTTG | -0.09
AGGTCCACGTGGGTGT | -0.12
GTTTCCACGTGTTTTT | 0.22
GGGCGCACGTGTGGCT | 0.02
TGTTGCACGTGGCGTG | -0.02
TGTGACACGTGGAAAT | 0.1
TGTCACACGTGGTGAT | -0.01
TTGTACACGTGGGAAA | 0.01
AGCTTCACGTGAGAGG | 0.4
GTACGCACGTGGTGGT | -0.1
CGCGGCACGTGATATG | 0.13
TGGCTCACGTGTGAGG | 0.41
AAAATCACGTGCGGTG | 0.23
TGGGTCACGTGCTGAG | -0.08
GTGGCCACGTGGGATA | -0.21
TCATTCACGTGATTGG | 0.43

Sequence | relative binding free energy [kcal/mol]
TGAAGCACGTGGTTAG | -0.12
AGGCTCACGTGATGTT | 0.37
CAATGCACGTGTGGGC | 0.01
CGTTTCACGTGGTTAT | 0.2
ACTGTCACGTGTATTT | 0
ATTTTCACGTGGGGAT | 0.15
ATATTCACGTGGCTAG | 0.32
AACTACACGTGTTGGT | 0.13
TTTCGCACGTGGAGAT | -0.02
GGAATCACGTGCGAGG | 0.09
GTGGGCACGTGATAGG | 0.03
TGATGCACGTGTATCG | 0.05
ATAGGCACGTGACGAT | 0.07
GGGTTCACGTGGAACT | 0.39
TTCGTCACGTGTGTAT | 0.22
ATATGCACGTGGTGGC | -0.07
CTTGTCACGTGTTTCT | 0.03
AGCAACACGTGAGGGT | 0.17
GGTGACACGTGTCTGT | -0.01
AAGAACACGTGGTGGT | -0.07
CCAGTCACGTGTTTGT | 0.17
GTTGACACGTGGAGGA | 0.19
GTAGTCACGTGGGGTG | 0.04
GCAGGCACGTGGTCGG | -0.23
GTTGACACGTGATTGC | 0.33
GGGGTCACGTGTGGGT | 0.24

Sequence | relative binding free energy [kcal/mol]
TCAGACACGTGTGAGT | 0.08
TTTTACACGTGAAGGT | 0.34
TGGGCCACGTGGGGGG | -0.19
TGGGACACGTGTCGTT | -0.12
GAAATCACGTGGCGGG | 0.13
GTGAACACGTGTGAAG | 0.17
AAAGACACGTGGTAAT | 0.17
TATTCCACGTGTTTGT | -0.06
GAGGGCACGTGCAAAG | 0.14
ATTGGCACGTGTTGTT | -0.01
CTGGACACGTGGTTGT | -0.2
TGCGGCACGTGTCGTG | -0.25
GCATGCACGTGTGGTG | 0.09
AGATGCACGTGGGGCT | -0.19
GGTAACACGTGCGGGC | -0.08
ATTTCCACGTGGATTT | 0.14
GCATACACGTGTGTGG | 0.08
GAGAGCACGTGTGGGA | -0.09
TATTTCACGTGGAGAA | 0.17
AGGCTCACGTGGTTGT | 0.2
TTCAGCACGTGTGGTC | -0.01
TAAGGCACGTGTTATT | -0.11
CGGGGCACGTGCAGAG | -0.16
GTGATCACGTGGCTGA | 0.05
GCGCCCACGTGGGGGG | -0.35
TAAGGCACGTGCTTTG | -0.11

Sequence | relative binding free energy [kcal/mol]
AAGTTCACGTGCATGG | 0.24
GGTGCCACGTGGGAAT | -0.13
ATGGCCACGTGGTGTT | -0.18
GTGGACACGTGGAGGT | 0.14
TGATGCACGTGATCGT | 0
CGGGACACGTGTGGTA | -0.08
TCGATCACGTGTTATT | 0.22
GAAATCACGTGTCGTG | 0.25
AAGGACACGTGTTAGG | -0.17
ACAGGCACGTGGTGGA | -0.13
TAAGGCACGTGTGGGG | -0.05
GTGGGCACGTGGACAA | -0.13
GGTTGCACGTGGTTCG | 0.06
ATGTACACGTGCTTTG | 0.07
CGGCGCACGTGAAGTG | 0.15
GGTAACACGTGTAGAG | 0.2
TCTAGCACGTGGGGGC | -0.08
TGCTACACGTGTGGTC | 0.09
GGTTGCACGTGGAGCG | -0.04
TGTTGCACGTGGTTAC | -0.13
GCAGTCACGTGCGGGT | 0
TTATCCACGTGAGTGT | 0.2
CTGTTCACGTGACGTG | 0.35
ATGGACACGTGCGGGC | -0.01
GTAGTCACGTGTGGCT | 0.19
TTTGGCACGTGGTCGC | -0.26

Sequence | relative binding free energy [kcal/mol]
AGGGCCACGTGTAGGC | -0.01
CTGGTCACGTGGTAGC | 0.11
GATATCACGTGGGAGG | 0.16
GGTGCCACGTGTTAAG | 0.04
GAGGTCACGTGATGTT | 0.26
GTGAGCACGTGGCAGG | -0.16
AAAATCACGTGGTAGG | 0.16
ATGGTCACGTGTCAGA | 0.06
AGATTCACGTGTCTTG | 0.44
TGGCGCACGTGAGTCG | 0.09
GTTATCACGTGGAGGA | 0.12
GGTGGCACGTGAAGTT | 0.38
ATTTGCACGTGTGGTA | 0.05
GTCGGCACGTGGTTGT | -0.04
AGAGACACGTGTGTGA | -0.09
TGGAACACGTGTGGTT | 0.09
TGAATCACGTGGTATA | 0.06
TTATGCACGTGAGCGT | 0.14
TTTATCACGTGGTGAA | 0.09
GACGGCACGTGGGGCG | -0.24
GGGAGCACGTGAGCGG | 0.15
AGGAACACGTGGGTTA | -0.04
TGGTACACGTGTTGAC | 0.02
GCCGTCACGTGGGGTG | 0.01
TGAGTCACGTGCATGG | 0.08
GGCGTCACGTGCTGTT | 0.05

Sequence | relative binding free energy [kcal/mol]
TTCTTCACGTGGGGGT | 0.25
TGGTACACGTGATATG | 0.1
TGACTCACGTGGGTGA | -0.1
ATGTGCACGTGAAGTC | 0.18
ACTGACACGTGTGGGG | 0.02
GTTGACACGTGTTGCA | 0.11
GTTAACACGTGTGACG | 0.23
CATGTCACGTGTAAGA | 0.19
TATTGCACGTGGGCAG | -0.23
ATCTGCACGTGTTATG | 0.05
TAGGGCACGTGCGGAT | -0.15
AATGTCACGTGAGTTT | 0.29
AGGGACACGTGGTGTA | -0.02
TGGTACACGTGCCGTG | -0.04
AATTACACGTGGGTCG | 0.15
CTAATCACGTGGCTGG | 0.2
GTGGACACGTGGCGCG | -0.02
AGCGGCACGTGCGCGG | -0.3
TGAGACACGTGTTTTA | 0.04
TAAAGCACGTGGTTAA | -0.21
CTTAGCACGTGTGGAA | 0.05
TCAAGCACGTGTGCGT | 0.05
GTAGTCACGTGGGGTC | -0.02
AGAGGCACGTGCGTTG | -0.07
AAAAGCACGTGCGGGG | -0.13
GTTATCACGTGATAGA | 0.21

Sequence | relative binding free energy [kcal/mol]
CAGGGCACGTGTTGGC | -0.01
ATCAGCACGTGTTTGT | -0.14
GGTATCACGTGACGTG | 0.28
GGTATCACGTGTATAT | 0.26
TATGGCACGTGTCGTA | -0.1
TCCGGCACGTGGAGGT | -0.08
ATAGGCACGTGTAGAA | -0.08
TGGTACACGTGTTCTT | 0
ACGCTCACGTGGGTTG | -0.05
TTTACCACGTGTTGTT | 0
AAGTGCACGTGTTGAA | 0.04
ACAGTCACGTGGTTGT | 0.14
ATGCGCACGTGTTTAG | -0.09
CAAAGCACGTGTGTGG | -0.08
TGATGCACGTGCTATG | -0.16
AGAGTCACGTGAAGTT | 0.33
AGGTTCACGTGTTCTG | 0.19
TACGTCACGTGAATGG | 0.24
GGTTACACGTGGTTAA | 0.22
TTTAACACGTGAAGGC | 0.35
CAGGTCACGTGGAAGG | 0.09
ACTGTCACGTGTTATG | 0.18
TCTGGCACGTGAGCGT | 0.1
GAAGACACGTGGTTGG | 0.12
GGTGGCACGTGCGCTT | -0.22
GGGGGCACGTGTAGAA | -0.07

Sequence | relative binding free energy [kcal/mol]
AGGGGCACGTGGGCTA | -0.41
TGCCTCACGTGAGGTG | 0.33
GGTCGCACGTGTGTTT | 0.05
TAAGTCACGTGGTAGC | 0.05
TTGGTCACGTGATCTG | 0.21
AGGTGCACGTGCTAGG | -0.18
TTGAGCACGTGCGCTT | -0.12
GTATGCACGTGGCTAT | -0.09
ATAAGCACGTGACGTT | 0.12
GTGAGCACGTGATTTA | 0.22
AAATTCACGTGGTTGA | 0.15
TGTTGCACGTGGACGC | 0.06
AGTCTCACGTGGGTTA | 0.02
AGGATCACGTGGTTAT | 0.06
CATTGCACGTGTGGGA | 0.02
AGCTTCACGTGGGTGC | 0.13
GGTGTCACGTGTTGCG | 0.1
TGTTCCACGTGTGCAT | 0.11
TGATACACGTGTCGTT | 0.03
AGTCCCACGTGGTGGT | -0.11
AAAAGCACGTGGGGCG | -0.24
TGAGGCACGTGGGTCT | -0.2
AAAGGCACGTGAGTGA | 0.17
GGTGTCACGTGCGTGA | 0.03
ATGGGCACGTGGTTTT | -0.14
TTTTGCACGTGCTTAG | -0.07

Sequence | relative binding free energy [kcal/mol]
AGTGCCACGTGGCGGA | -0.18
GAGAGCACGTGTTTAT | -0.03
TGTGTCACGTGTGTGA | 0.09
GAAATCACGTGTTTGG | 0.09
TTGTTCACGTGGTGAC | 0.35
AAGTGCACGTGTAAGA | -0.01
CGTTGCACGTGCTATG | 0.06
TGAGGCACGTGCAAGT | -0.14
TGTATCACGTGGGTCA | 0.05
TGTATCACGTGACGGA | 0.26
GAGTTCACGTGGTGAA | 0.2
AGTTGCACGTGGCTGC | -0.08
CGTGTCACGTGGGGCC | -0.1
TAATGCACGTGGGATG | -0.04
GGTTGCACGTGGGCGA | -0.18
ATGCACACGTGAGGTT | 0.27
CAGTGCACGTGTTGTG | -0.04
TTTTACACGTGACGTA | 0.37
TGGGGCACGTGATAAA | 0.1
ATTGTCACGTGAGTAG | 0.28
CAAGGCACGTGTGGAG | -0.14
GGAGGCACGTGGGCTG | -0.31
